Assay results as given in PubChem BioAssay AID1477 (National Center for Advancing Translational Sciences (NCATS), 2009).
The whole screen tested about 230,000 compounds, of which fewer than 10 were called active. The inconclusive results got no clear call from the source; some entries with a clear call stand among them for comparison. Calls follow the shape of the dose curve; as a rule, active = well fitted curve in the direction sought with a large enough effect; inconclusive = small, poorly fitted or top-dose-only effect, or effect the other way, or another doubt; inactive = no such curve, though single readings can be large or run the other way. No potency is given beside an inconclusive call; the fits are too rough.

Each molecule was assayed against Runt-related transcription factor 1 (Homo sapiens) + Core-binding factor subunit beta (Homo sapiens) (UniProt Q01196+Q13951) (assay: qHTS Assay for Compounds Blocking the Interaction Between CBF-beta and RUNX1 for the Treatment of Acute Myeloid Leukemia). Conditions: AlphaScreen CBFb-His/RUNX1-biotin binding, biochemical; activity, negative = inhibition: at 59.8 µM (top of the series) unless noted.
UniProt Q01196, sequence (Q01196 whole entry, looked up): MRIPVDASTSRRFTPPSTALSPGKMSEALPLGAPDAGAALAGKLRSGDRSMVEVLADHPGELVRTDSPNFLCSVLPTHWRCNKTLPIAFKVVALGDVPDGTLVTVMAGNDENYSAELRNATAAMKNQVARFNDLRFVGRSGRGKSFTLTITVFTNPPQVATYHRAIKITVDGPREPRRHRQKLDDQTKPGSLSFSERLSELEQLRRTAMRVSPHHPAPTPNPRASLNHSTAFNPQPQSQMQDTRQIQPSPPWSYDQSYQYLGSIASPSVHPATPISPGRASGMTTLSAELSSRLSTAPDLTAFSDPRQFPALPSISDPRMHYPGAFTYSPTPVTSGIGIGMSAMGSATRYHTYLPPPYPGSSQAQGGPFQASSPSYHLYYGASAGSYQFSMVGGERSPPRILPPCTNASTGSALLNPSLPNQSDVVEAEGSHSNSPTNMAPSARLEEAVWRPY
UniProt Q01196, sequence (Q13951 whole entry, looked up): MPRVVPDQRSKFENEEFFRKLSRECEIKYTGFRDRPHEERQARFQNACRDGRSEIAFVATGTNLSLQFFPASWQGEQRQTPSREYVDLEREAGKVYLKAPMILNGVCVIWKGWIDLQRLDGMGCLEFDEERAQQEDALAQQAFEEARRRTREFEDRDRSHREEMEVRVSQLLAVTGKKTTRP
Summary of the method: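 His-tagged CBF-beta and biotinylated RUNX1 (30 nM each) were premixed 20 min at room temperature, exposed to compound for 15 min, then given nickel-chelate and streptavidin AlphaScreen beads (50 ng each). After 90 min, AlphaScreen signal was read.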
For activity, negative = inhibition in this document: % of control where 0% means no effect.

Row | Structure (SMILES) | Potency | activity, negative = inhibition
1 | Cc1nc(-c2ccccc2)sc1C(=O)CSc1ccc(Cl)cc1 | inconclusive [activator, partial curve, poor fit] | –
2 | CCCCOc1[nH]c2nc(-c3ccco3)n(Cc3ccco3)c(=N)c2c1C#N | inconclusive [inhibitor, single point] | –
3 | CCn1c2ccccc2c2cc(CN3CCN(C(=O)c4ccco4)CC3)ccc21 | inconclusive [inhibitor, single point] | –
4 | COc1ccc(Nc2nc(NCc3ccco3)nc(N/N=C/c3ccc(O)cc3)n2)cc1 | inconclusive [inhibitor, single point] | –
5 | COc1cc(/C=N/NC(=O)CCC(=O)NCc2ccccc2)cc(OC)c1OC | – | inactive: -4.31%
6 | Cc1ccc(C(=O)c2coc3ccc(OCC(=O)O)cc23)cc1 | – | inactive: 5.21%
7 | CCN(CC)C(=O)CC(c1ccc(N(C)C)cc1)c1c(OC)cc(OC)c2c(-c3ccccc3)cc(=O)oc12 (centres undefined) | inconclusive [inhibitor, single point] | –
8 | O=C(NCCCn1ccnc1)C(=O)NCC1OCCN1S(=O)(=O)c1ccccc1 (centres undefined) | inconclusive [inhibitor, partial curve] | –
9 | Cc1cccc(NC(=S)NCc2ccc(F)cc2)c1 | – | inactive: 5.78%
10 | Cc1[nH]c2ccccc2c1Cc1nnc(SCC(N)=O)o1 | inconclusive [activator, partial curve, poor fit] | –
11 | CC(=O)Nc1ccc(C2=NNC(=Nc3ccc(S(=O)(=O)N4CCOCC4)cc3)SC2)cc1 | inconclusive [inhibitor, partial curve] | –
12 | CN(C)c1ccc(CN(C(=O)c2ccc(Cl)c([N+](=O)[O-])c2)C2CCS(=O)(=O)C2)cc1 (centres undefined) | – | inactive: -12.4%
13 | CN(C)c1ccc(NC(=O)COC(=O)c2cc(Cl)ccc2[N+](=O)[O-])cc1 | inconclusive [inhibitor, single point] | –
14 | Cc1ccc(C2=N/C(=C\c3cccs3)C(=O)N2Nc2ccccc2)cc1 | inconclusive [inhibitor, partial curve] | –
15 | CCOc1ccc(NC2=NCC(=O)N2CCc2ccccc2)cc1 | – | inactive: 2.37%
16 | CN(C)CCCCSC(=N)N | inconclusive [activator, full curve, poor fit] | –
17 | COc1cc(C=O)ccc1O | inactive | –
18 | COc1ccc(Cn2nnnc2C(c2ccncc2)N2CCOCC2)cc1 (centres undefined) | – | inactive: 4.16%
19 | CC1=C(C)C(=O)C(CCCCC#CCCCC#CCO)=C(C)C1=O | inconclusive [inhibitor, single point] | –
20 | CC1=C/C(=C\c2ccc(Br)o2)C(=O)O1 | inconclusive [inhibitor, partial curve] | –
21 | Cc1cc2c(ncn2Cc2ccccc2)c([N+](=O)[O-])c1C | – | inactive: -3.46%
22 | O=C(Nc1nc2ccc(F)cc2s1)C1CCN(S(=O)(=O)c2cc([N+](=O)[O-])ccc2Cl)CC1 | inconclusive [inhibitor, partial curve] | –

Row | Structure (SMILES) | Potency | activity, negative = inhibition
23 | C=CCC1CCCC(=O)N2CC[C@H](O)C12 (some centres undefined) | inconclusive [activator, single point] | –
24 | Clc1ccc(/C=C\c2nccc3c2[nH]c2ccccc23)cc1 | inconclusive [activator, partial curve] | –
25 | COc1cc(OC)c(OC)cc1CNc1cc(C)ccc1OC | inconclusive [inhibitor, single point] | –
26 | Cc1ccc(N(CC(O)Cn2nc(C)cc2C)S(=O)(=O)c2ccc3ccccc3c2)cc1 (centres undefined) | inconclusive [inhibitor, single point] | –
27 | Cn1c(SCCN2CCCCC2)nnc1-c1ccccc1Br | – | inactive: -0.91%
28 | CCCn1c(/C=C/c2ccccc2)nc2ccccc21 | inconclusive [activator, single point] | –
29 | CCOC(=O)N1CCN(CC(=O)Nc2c(C(=O)OC)[nH]c3cc(C)ccc23)CC1 | – | inactive: 0.683%
30 | Cc1ccc(-n2c(C)cc(/C=C3/C(=O)NC(=O)N(Cc4ccco4)C3=O)c2C)cc1 | inconclusive [inhibitor, single point] | –
31 | COC(=O)c1ccc(OC(=O)c2ccccn2)cc1 | inconclusive [inhibitor, partial curve] | –
32 | CCCCCCCC/C=C\CCCCCCCC(=O)OC[C@@H](COP(O)(O)=S)OC | – | inactive: -22.3%
33 | O=C(/C=C/c1ccco1)Nc1ccccc1C(=O)O | inconclusive [inhibitor, single point] | –
34 | O=c1cc2ncc(-c3[nH]ncc3[N+](=O)[O-])cn2[nH]1 | inconclusive [inhibitor, single point] | –
35 | C/C(=N\NC(=S)NCc1ccccc1)C1CCCCC1 | inconclusive [inhibitor, single point] | –
36 | O=c1c(-c2nc3ccccc3s2)cccn1Cc1ccccc1 | inconclusive [activator, partial curve] | –
37 | O=C1NS(=O)c2cc([N+](=O)[O-])cc([N+](=O)[O-])c21 (centres undefined) | inconclusive [inhibitor, single point] | –
38 | COC(=O)CCC(=O)OC1(C)C(=O)C=C2C=C(C3CC3)N(c3ccc(CO)cc3)C=C2C1=O (centres undefined) | inconclusive [inhibitor, single point] | –
39 | Cc1ccc(C(=O)Oc2ccc(C(=O)COC(=O)C3CC(=O)N(Cc4ccco4)C3)cc2)cc1 (centres undefined) | inconclusive [inhibitor, single point] | –
40 | CC(C)[C@H](NC(=O)c1ccccc1)C(=O)OCc1nc2scc(-c3ccccc3)c2c(=O)[nH]1 | inconclusive [activator, partial curve, poor fit] | –
41 | N#Cc1nc(Cc2ccccc2)oc1NCc1ccccc1 | – | inactive: 13.6%
42 | Nc1nc(-c2ccccn2)nc(N)c1Cc1ccccc1F | inconclusive [inhibitor, partial curve] | –
43 | O=C(Cn1nnc(-c2ccccc2F)n1)Nc1ccc(S(=O)(=O)NC2CCCC2)cc1 | inconclusive [activator, partial curve] | –
44 | COc1cccc(OCCNc2cc(N3CCOCC3)ccc2[N+](=O)[O-])c1 | inconclusive [inhibitor, partial curve] | –
